Laboratory results reported in the antibiotic and cytotoxicity screens of Wong et al. (2023).
The other results are listed elsewhere or left out.

How the values were obtained:
HSkMC = human skeletal muscle cells; assay: cytotoxicity call (relative viability < 0.9); settings: 10 µM
HepG2 = assay: cytotoxicity call (relative viability < 0.9); settings: 10 µM
S. aureus RN4220 = assay: growth inhibition call (relative growth <= 0.2); settings: 50 µM

Structure (SMILES) | cytotoxicity call (HSkMC) | cytotoxicity call (HepG2) | growth inhibition call (S. aureus RN4220)
c1n[nH]nc1SSc1cn[nH]n1 | inactive | inactive | active
Cc1noc(C)c1NC(=O)Nc1ccc2c(c1)C(=O)N([C@@H](C)CO)C[C@@H](C)[C@H](CN(C)C(=O)Nc1ccc(F)cc1)OCCCC[C@@H](C)O2 | inactive | inactive | inactive
C[C@H]1CN([C@@H](C)CO)C(=O)c2cc(C3=CCCC3)cnc2O[C@@H]1CN(C)C(=O)c1ccc2c(c1)OCO2 | inactive | inactive | inactive
O=C(C[C@H]1C[C@H]2c3cc(NC(=O)Nc4ccc(C(F)(F)F)cc4)ccc3O[C@H]2[C@H](CO)O1)NCc1ccc(Cl)cc1 | inactive | inactive | inactive
Cc1cc(C(=O)Nc2cccc3c2O[C@H](CN(C)S(=O)(=O)c2cccs2)[C@@H](C)CN([C@@H](C)CO)C3=O)n(C)n1 | inactive | inactive | inactive
CO[C@H]1CN(C)C(=O)c2ccc(NS(=O)(=O)c3cn(C)cn3)cc2OC[C@H](C)N(Cc2cccc(F)c2)C[C@@H]1C | inactive | inactive | inactive
O=C(C[C@H]1CC[C@@H]2[C@H](COC[C@@H](O)CN2S(=O)(=O)c2ccccc2F)O1)NCc1ccccc1Cl | inactive | inactive | inactive
C[C@H](CO)N1C[C@H](C)[C@H](CN(C)C(=O)NC2CCCCC2)Oc2ccc(NC(=O)CCCN(C)C)cc2CC1=O | inactive | inactive | inactive
CO[C@H]1O[C@H](CO)[C@@H](OC(=O)Nc2ccc(Oc3ccccc3)cc2)[C@H](OC(=O)Nc2ccccc2-c2ccccc2)[C@@H]1OC(=O)Nc1ccccc1-c1ccccc1 | inactive | inactive | inactive
C[C@@H]1CCCCO[C@@H](CN(C)C(=O)Nc2ccc3c(c2)OCO3)[C@H](C)CN([C@H](C)CO)C(=O)c2cc(NS(=O)(=O)c3ccccc3)ccc2O1 | inactive | inactive | inactive
C[C@@H]1CN([C@@H](C)CO)C(=O)Cc2cc(NC(=O)Nc3ccc(C(F)(F)F)cc3)ccc2O[C@H]1CN(C)C(=O)NC1CCCCC1 | inactive | inactive | inactive
C[C@H](CO)N1C[C@H](C)[C@@H](CN(C)S(=O)(=O)c2cn(C)cn2)Oc2c(NS(C)(=O)=O)cccc2C1=O | inactive | inactive | inactive
COc1ccc(S(=O)(=O)Nc2ccc3c(c2)C(=O)N([C@H](C)CO)C[C@@H](C)[C@H](CN(C)C(=O)Nc2c(C)noc2C)O3)cc1 | inactive | inactive | inactive
C[C@H]1COC(=O)[C@@H](Cc2ccc(F)cc2)CCC=CC[C@@H](CC(=O)N[C@@H](CO)Cc2ccccc2)C(=O)N1 | inactive | inactive | inactive
COCC(=O)Nc1ccc2c(c1)C(=O)N(C)C[C@@H](OC)[C@@H](C)CN(C(=O)Cc1ccccn1)[C@@H](C)CO2 | inactive | inactive | inactive
C[C@H]1CN([C@@H](C)CO)C(=O)Cc2cc(NC(=O)CCC(F)(F)F)ccc2O[C@@H]1CN(C)S(=O)(=O)c1ccccc1 | inactive | inactive | inactive
C[C@H](CO)N1C[C@H](C)[C@@H](CN(C)S(=O)(=O)c2cn(C)cn2)OCc2ccccc2-c2ccccc2C1=O | inactive | inactive | inactive
COc1ccc(S(=O)(=O)N(C)C[C@@H]2Oc3ccc(NS(=O)(=O)c4ccc(C)cc4)cc3C(=O)N([C@@H](C)CO)C[C@@H]2C)cc1 | inactive | inactive | inactive
C[C@@H]1CN([C@H](C)CO)C(=O)c2cc(NC(=O)c3ccncc3)ccc2O[C@@H](C)CCCCO[C@H]1CN(C)Cc1ccc(C(F)(F)F)cc1 | inactive | inactive | inactive
C[C@H]1CN([C@@H](C)CO)C(=O)c2cc(C#CCc3ccccc3)cnc2O[C@@H]1CN(C)CC1CCOCC1 | inactive | inactive | inactive
COc1ccccc1-c1ccc2c(c1)O[C@H](CN(C)C(=O)c1ccncc1)[C@@H](C)CN([C@H](C)CO)S2(=O)=O | inactive | inactive | inactive
COc1ccc(S(=O)(=O)N(C)C[C@H]2OCCCC[C@@H](C)Oc3ccc(NS(=O)(=O)c4ccc(Cl)cc4)cc3C(=O)N([C@H](C)CO)C[C@H]2C)cc1 | inactive | active | inactive
C[C@@H]1CCCCO[C@H](CN(C)S(C)(=O)=O)[C@@H](C)CN([C@H](C)CO)C(=O)c2cc(NS(=O)(=O)c3ccccc3)ccc2O1 | inactive | inactive | inactive
O=C(C[C@H]1C[C@H]2c3cc(NC(=O)Cc4ccncc4)ccc3O[C@H]2[C@@H](CO)O1)NCc1ccc2c(c1)OCO2 | inactive | inactive | inactive
Cc1ccc(S(=O)(=O)Nc2ccc3c(c2)C(=O)N([C@H](C)CO)C[C@@H](C)[C@H](CN(C)C(=O)Nc2ccc(C(F)(F)F)cc2)O3)cc1 | inactive | inactive | inactive
O=S(=O)(Cc1nn[nH]n1)c1ccccc1 | inactive | inactive | inactive
CC(C)CNC(=O)[C@@H]1c2ccccc2C(=O)N(Cc2cc(F)cc(C(F)(F)F)c2)[C@H]1c1ccc(CO)cc1 | inactive | inactive | inactive
Cc1ccc(S(=O)(=O)N(C)C[C@@H]2OCCCC[C@@H](C)Oc3ccc(NC(=O)Cc4ccccc4)cc3C(=O)N([C@@H](C)CO)C[C@H]2C)cc1 | inactive | inactive | inactive

Structure (SMILES) | cytotoxicity call (HSkMC) | cytotoxicity call (HepG2) | growth inhibition call (S. aureus RN4220)
COc1ccc2c3c([nH]c2c1)[C@H](CO)N(C[C@]13CCN(CC1)S(=O)(=O)c1ccccc1)C(=O)c1cnccn1 | inactive | inactive | inactive
CCCNC(=O)Nc1ccc2c(c1)OC[C@@H](C)N(Cc1ccc(-c3ccccn3)cc1)C[C@H](C)[C@@H](OC)CN(C)C2=O | inactive | inactive | inactive
C[C@H]1CN([C@@H](C)CO)C(=O)c2cc(NC(=O)CCCN(C)C)ccc2O[C@H]1CN(C)S(=O)(=O)c1ccccc1 | inactive | inactive | inactive
C/C=C/c1ccc2c(c1)O[C@H](CN(C)S(=O)(=O)c1ccccc1OC)[C@H](C)CN([C@@H](C)CO)S2(=O)=O | inactive | inactive | inactive
CC(C)NC(=O)Nc1ccc2c(c1)C(=O)N([C@@H](C)CO)C[C@@H](C)[C@@H](CN(C)C(=O)C1CCCCC1)OCCCC[C@H](C)O2 | inactive | inactive | inactive
COc1ccc(S(=O)(=O)N(C)C[C@H]2Oc3ccc(NC(=O)Cc4ccccc4)cc3C(=O)N([C@@H](C)CO)C[C@H]2C)cc1 | inactive | inactive | inactive
COCCCCC(=NOCCN)c1ccc(C(F)(F)F)cc1.O=C(O)C=CC(=O)O | inactive | active | inactive
C=CCn1c(=O)c2cnc(Nc3ccc(N4CCN(C)CC4)cc3)nc2n1-c1cccc(C(C)(C)O)n1 | inactive | active | inactive
C[C@H](CO)N1C[C@H](C)[C@@H](CN(C)Cc2ccc3c(c2)OCO3)Oc2ccc(NS(C)(=O)=O)cc2C1=O | inactive | inactive | inactive
C[C@H]1CN([C@@H](C)CO)S(=O)(=O)c2ccc(C#CC(C)(C)O)cc2O[C@@H]1CN(C)Cc1ccncc1 | inactive | inactive | inactive
C[C@@H]1CN([C@@H](C)CO)C(=O)c2cc(NS(=O)(=O)c3ccccc3)ccc2O[C@@H]1CN(C)Cc1ccc(Oc2ccccc2)cc1 | inactive | active | inactive
O=C(NCCCO)C(=O)NC[C@H]1COc2ccccc2O1 | inactive | inactive | inactive
NC(=O)N[C@H]1NC(=O)NC1=O | inactive | inactive | inactive
C[C@H](CO)N1C[C@H](C)[C@@H](CN(C)S(=O)(=O)c2ccccc2)Oc2ccc(NS(=O)(=O)c3ccc(F)cc3)cc2CC1=O | inactive | inactive | inactive
COc1ccc(NC(=O)N(C)C[C@@H]2OCCCC[C@H](C)Oc3ccc(NC(=O)Nc4ccccc4)cc3C(=O)N([C@@H](C)CO)C[C@@H]2C)cc1 | inactive | inactive | inactive
CC(=O)N1c2ccccc2C2=NNC(=S)N[C@]21O | inactive | inactive | inactive
C[C@@H]1CN([C@@H](C)CO)C(=O)c2cc(-c3ccncc3)cnc2O[C@H]1CN(C)C(=O)Nc1ccc2c(c1)OCO2 | inactive | inactive | inactive
C[C@H]1CN([C@@H](C)CO)S(=O)(=O)c2ccc(-c3cncnc3)cc2O[C@H]1CN(C)C(=O)CN(C)C | inactive | inactive | inactive
CO[C@@H]1CN(C)C(=O)c2cc(NS(=O)(=O)c3ccccc3C)ccc2OC[C@@H](C)N(S(C)(=O)=O)C[C@@H]1C | inactive | inactive | inactive
CC(C)NC(=O)N(C)C[C@@H]1Oc2ccc(NS(=O)(=O)c3cn(C)cn3)cc2CC(=O)N([C@@H](C)CO)C[C@@H]1C | inactive | inactive | inactive
O=C(O)C[C@H]1CC[C@H]2[C@@H](COC[C@@H](O)CN2S(=O)(=O)c2ccc(F)cc2)O1 | inactive | inactive | inactive
C[C@H](CO)N1C[C@H](C)[C@@H](CN(C)C(=O)Nc2ccccc2F)Oc2ncc(Br)cc2C1=O | inactive | inactive | inactive
C[N+](C)(C)CCCC[C@@H]1NC(=O)[C@H]2C[C@@H](C(=O)NCCCCCCNC(=O)CS)[C@@H](c3cccc(OCCO)c3)N2C1=O | inactive | inactive | inactive
C[C@@H]1CN([C@@H](C)CO)C(=O)c2cccc(NC(=O)CCCCCC(=O)Nc3ccccc3N)c2O[C@@H]1CN(C)C(=O)Nc1ccccc1 | inactive | inactive | inactive
C[C@H](CO)N1C[C@H](C)[C@@H](CN(C)Cc2ccc3c(c2)OCCN3C)OCc2cn(nn2)CCCC1=O | inactive | inactive | inactive
Cc1ccc2nc(/N=C/c3ccc(Cl)cc3Cl)sc2c1 | inactive | inactive | inactive
C[C@@H]1CCCCO[C@H](CN(C)Cc2ccc(Cl)c(Cl)c2)[C@@H](C)CN([C@H](C)CO)C(=O)c2cc(NC(=O)Nc3cccc4ccccc34)ccc2O1 | inactive | inactive | inactive
